# Source: PubChem BioAssay AID624296 (National Center for Advancing Translational Sciences (NCATS), 2012)
# In all, about 350,000 compounds went through this assay and about 9,900 (2.8%) were called active. The shares of active, inactive and inconclusive entries below differ from those in the screen. Calls follow the shape of the dose curve; as a rule, active = well fitted activation curve with a large enough effect; inconclusive = small, poorly fitted or top-dose-only effect; inactive = no such curve, though single readings can be large or run the other way. No potency is given beside an inconclusive call; the fits are too rough.
# Test: A quantitative high throughput screen for small molecules that induce DNA re-replication in MCF 10a normal breast cells. Also: nearly all actives have a fitted effect of over 50% in size.
# Details: MCF 10A DNA re-replication, Hoechst nuclear intensity, 48 h; series mostly up to 46.1 µM
# Potency is read from the fitted curve at half-maximal effect; tags tell the direction and shape of the fitted curve.
row,SMILES,Potency
1,C=CCOC(=O)C1=C(C)NC(SCC(=O)N(CC)CC)=C(C#N)C1c1ccccc1 (stereo not given),"inconclusive [activator, partial curve]"
2,Cc1cc(N2CCCC2)nc2ccc(NC(=S)NC(C)C)cc12,"inconclusive [activator, single point]"
3,COc1ccc(O)c(-c2cc(-c3ccc(F)cc3)n[nH]2)c1,"inconclusive [activator, single point]"
4,CCCOc1ccc(NC(=O)CC2C(=O)N(CC)C(=S)N2CCCN2CCN(Cc3ccccc3)CC2)cc1 (stereo not given),"inconclusive [activator, single point]"
5,Cc1cccc(NC(=S)N2CCN(S(C)(=O)=O)CC2)c1,inactive
6,CCOC(=O)c1sc(NC(=O)CNCc2ccccn2)c(C(=O)OCC)c1C,"inconclusive [activator, full curve, poor fit]"
7,O=C(/C=C/c1cccs1)Nc1cccc(NC(=O)/C=C/c2cccs2)n1,active: 18.4 µM
8,COc1ccc(Cc2nc(-c3ccc(-n4cccc4)cc3)no2)cc1,inactive
9,CCCN=C1N(C)C[C@@H]2[C@@H]3C(=O)N(C)C(=O)[C@@H]3[C@](CC)(C(=O)OC)N12,inactive
10,COc1ccccc1/C=C/CN1CCCC(CO)(Cc2cccc(Cl)c2)C1 (stereo not given),"inconclusive [activator, single point]"
11,O=C(NN1C(=O)c2ccccc2NC1c1ccc([N+](=O)[O-])o1)c1ccccc1 (stereo not given),"inconclusive [activator, single point]"
12,CN(c1ccc(C(=O)NCCSCc2c(F)cccc2Cl)cc1)S(C)(=O)=O,"inconclusive [activator, partial curve, poor fit]"
13,CCc1cccc(CC)c1NC(=S)NCCc1c(C)[nH]c2ccccc12,"inconclusive [activator, single point]"
14,COc1cccc(/C=C/C(=O)OCC(=O)c2ccc3c(c2)NC(=O)CO3)c1OC,"inconclusive [activator, partial curve, poor fit]"
15,COCCN1C(=O)N[C@@H](c2ccccc2)C(C(C)=O)=C1C,"inconclusive [activator, single point]"
16,Cc1c(C(=O)/C=C/N(C)C)nnn1-c1ccc(Cl)cc1Cl,"inconclusive [activator, partial curve, poor fit]"
17,CCC(=O)Nc1nc2ccc([N+](=O)[O-])cc2s1,"inconclusive [activator, single point]"
18,Cc1n(-c2ccccc2)c2ccc(Cl)cc2[n+]1CCO,"inconclusive [activator, full curve, poor fit]"
19,Cn1c(=O)c2c(nc(CN3CCc4ccccc4C3)n2Cc2cccc(Cl)c2)n(C)c1=O,"inconclusive [activator, partial curve]"
20,CC(C)(C)NC(=O)CSc1nc2ccc(Nc3nc(N4CCOCC4)nc(N4CCOCC4)n3)cc2s1,"inconclusive [activator, partial curve, poor fit]"
21,CCOC(=O)c1cc2n(c1N)-c1ccccc1C2=O,"inconclusive [activator, single point]"
22,CCC(c1nnnn1CS(=O)(=O)c1ccc(C)cc1)N1CCN(c2nc3ccccc3s2)CC1 (stereo not given),"inconclusive [activator, single point]"
23,Cc1ccc(NC(=O)CNc2ccccc2CN(C)C2CCCCC2)cc1,"inconclusive [activator, single point]"
24,CCOc1ccc2nc(Cl)c(C3CC(c4ccco4)=NN3S(=O)(=O)c3ccccc3)cc2c1 (stereo not given),inactive

row,SMILES,Potency
1,CCCCOC(=O)n1ccc(C(=O)Nc2ccccc2OC)n1,"inconclusive [activator, full curve, poor fit]"
2,O=C1CC(N(O)c2ccccc2)C(=O)N1c1ccc(Cl)c(Cl)c1 (stereo not given),"inconclusive [activator, full curve, poor fit]"
3,O=C(CSc1nnc(-c2ccc(Cl)cc2)n1-c1ccc(Cl)cc1)N/N=C/c1ccco1,"inconclusive [activator, single point]"
4,CC/C(C)=N/Nc1nc2sc3c(c2c(=O)[nH]1)CC(C)(C)OC3,"inconclusive [activator, partial curve, poor fit]"
5,NC(=O)c1ccccc1N/C=C/C(=O)c1ccc(F)cc1,inactive
6,CC(Sc1nnc(-c2ccccc2Br)n1-c1cccc(C(F)(F)F)c1)C(N)=O (stereo not given),inactive
7,Cc1ccc(-c2c3c(=O)n(C)c(=O)n(C)c3cn2Cc2ccccc2)cc1,"inconclusive [activator, partial curve, poor fit]"
8,O=C(c1ccc(CS(=O)Cc2ccc(Cl)cc2)o1)N1CCN(c2cccc(Cl)c2)CC1 (stereo not given),"inconclusive [activator, single point]"
9,CCOc1ccc(NC(=O)CSc2ccccc2N)cc1,inactive
10,Cc1nnc(NCCc2ccccc2)c2ccccc12,inactive
11,COC(=O)Cc1csc(Nc2c(C)n(C)n(-c3ccccc3)c2=O)n1,inactive
12,Cc1c([C@H]2[C@@H](CC#N)C2(C)C)c2ccccc2n1C,inactive
13,O=C(NNC(=O)c1cccnc1)c1ccncc1,"inconclusive [activator, single point]"
14,O=C(Cn1nc(Cl)nc1Cl)Nc1ccccc1,"inconclusive [activator, single point]"
15,COc1cc(NC(=O)Nc2ccccc2OC)c(OC)cc1NC(=O)CN1CCCCC1,inactive
16,C=CCn1c(SCC(=O)Nc2ccccc2OC)nnc1-c1ccccn1,"inconclusive [activator, single point]"
17,CCCCNC(=O)/C(C#N)=C/c1cccnc1,"inconclusive [activator, partial curve, poor fit]"
18,N=c1c(C(=O)NC2CCCC2)cc2c(=O)n3ccccc3nc2n1CCN1CCOCC1,"inconclusive [activator, partial curve, poor fit]"
19,CSc1nn(-c2ccc(C(=O)OC(C(=O)NC(N)=O)C(C)C)cc2)c(=S)s1 (stereo not given),"inconclusive [activator, single point]"
20,Cc1ccc(Oc2ccc(/C=N/O)cn2)cc1,"inconclusive [activator, single point]"
21,CCOc1ccccc1C1CC(=O)Nc2cc3c(cc21)OCCO3 (stereo not given),active: 7.31 µM
22,COCCCN1CN(S(=O)(=O)c2ccc(Cl)cc2)c2nc3ccccc3nc21,"inconclusive [activator, single point]"
23,N#C/C(=C/c1ccc(N2CCCCC2)o1)C(=O)Nc1ccc2ccccc2c1,"inconclusive [activator, partial curve]"
24,CCOC(=O)c1sc2ncn(CC(=O)N(CC)CC)c(=O)c2c1C,active: 14.6 µM

row,SMILES,Potency
1,Cc1cc(/C=C2/C(=N)N3C(=NC2=O)SN=C3S(C)(=O)=O)c(C)n1-c1ccccc1F,"inconclusive [activator, single point]"
2,Cc1csc(NC(=O)CSc2nc3ccccc3s2)n1,inactive
3,O=Cc1cn(CC(=O)Nc2ccccc2)c2ccccc12,inactive
4,N#CCCN1CCC(NC(=O)OCc2ccccc2)CCC1=O (stereo not given),inactive
5,Cc1cc(NC(=O)CSc2nc(C(C)C)nc3ccccc23)no1,active: 25.9 µM
6,Cc1ccc(/C=N/NC(=O)Nc2ccccc2)o1,inactive
7,O=C(CCn1cnc2ccccc21)N/N=C/c1ccccc1O,"inconclusive [activator, partial curve]"
8,COc1ccc(C2c3[nH]c4ccccc4c3CCN2Cc2ccoc2)c(F)c1 (stereo not given),"inconclusive [activator, single point]"
9,COC(=O)c1ccc2c(=O)n(CC3CCCO3)c(=S)[nH]c2c1 (stereo not given),active: 23.1 µM
10,CCn1c(CNC(=O)COc2ccc(C(C)C)cc2)nnc1SCC(=O)Nc1cc(F)ccc1C,"inconclusive [activator, full curve]"
11,Cc1ccc(N2CC(C(=O)O)CC2=O)cc1 (stereo not given),inactive
12,CSCCC(NS(=O)(=O)c1cccc(C(F)(F)F)c1)C(=O)N(C)CCOc1ccc(Cl)cc1 (stereo not given),"inconclusive [activator, single point]"
13,O=C(NC1CCCCCC1)C1CCN(C(=O)c2cccc(Cl)c2)CC1,"inconclusive [activator, partial curve, poor fit]"
14,COC(=O)c1ccc(N2CCc3ccccc32)c([N+](=O)[O-])c1,"inconclusive [activator, single point]"
15,O=C1C=C(c2ccc(Cl)cc2)C(=O)N1Nc1ccccc1,active: 5.8 µM
16,O=S(=O)(Oc1ccc(C(=S)N2CCOCC2)cc1)c1ccc(Cl)cc1,"inconclusive [activator, partial curve, poor fit]"
17,CCCCn1c(N)c(N(CCOC)C(=O)c2cc3c(s2)CCC3)c(=O)[nH]c1=O,inactive
18,Cc1ccccc1N1C(=O)c2cccc3c(N(C)CCO)ccc(c23)C1=O,inactive
19,O=C(NCc1ccccn1)C1CCN(S(=O)(=O)c2ccc(Br)cc2)CC1,"inconclusive [activator, full curve, poor fit]"
20,O=C(NC1(C(F)(F)F)N=C(c2ccccc2)NC1=O)c1ccccc1F (stereo not given),"inconclusive [activator, single point]"
21,CC(C)(C)c1ccc(S(=O)(=O)Nc2cccc(C3OCCCO3)c2)cc1,inactive
22,CCN(C(=O)c1cc2c(=O)n3ccccc3nc2s1)C1CCCCC1,"inconclusive [activator, single point]"
